# In article PMC12136788:
# Some of the results follow.
# T1: UNK ZnF1-6 (called full-length) (human, UniProt Q9C0B0 30-357)
# T1 sequence: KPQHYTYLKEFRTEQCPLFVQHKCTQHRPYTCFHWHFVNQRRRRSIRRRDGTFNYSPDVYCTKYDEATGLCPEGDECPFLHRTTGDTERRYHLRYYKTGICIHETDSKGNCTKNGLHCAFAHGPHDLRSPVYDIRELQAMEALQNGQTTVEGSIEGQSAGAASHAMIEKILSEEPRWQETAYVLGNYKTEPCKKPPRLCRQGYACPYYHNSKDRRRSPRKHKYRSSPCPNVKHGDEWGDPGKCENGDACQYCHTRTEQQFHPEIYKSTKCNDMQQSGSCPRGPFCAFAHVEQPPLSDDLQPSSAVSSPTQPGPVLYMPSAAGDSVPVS
# B1: chr12:104348774:104348848:+|3pUTR|ENSG00000198431|msi1_unk|total|mutant (ssRNA)
# RNA: GGGAGUUCUACAGUCCGACGAUCCGUUGUCAAGUUUUCCCGGGUUGAAUUUUUUUCUUUUUUCUCCAUGGUGUUAAUGAUAUCCGAGAUGAAAAACGUCCGCAGUUGAUUUUUGUCCAAAAGCAAGUCAUGGCCCGAGUAUCCCAACAGAGGAUUGAGCAUCA
# B2: chr1:186359875:186359976:-|CDS|ENSG00000047410|msi1_unk|FALSE|overlapping (ssRNA)
# RNA: GGGAGUUCUACAGUCCGACGAUCGGAAACUCAGGAUCAGUUGCUUUUGGAGAAACUAGAGAACAAAAGAAUUAAUAAGUACCUAGAUGAAAUAGUGAAAGAAGUGGAAGCCAAAGCACCAAUUUUGAAACGCCAGCGUGAGGACAACAGAGGAUUGAGCAUCA
# B3: chrX:30828625:30828726:-|3pUTR|ENSG00000157625|msi1|FALSE|bound_elsewhere (ssRNA)
# RNA: GGGAGUUCUACAGUCCGACGAUCUUCUUGUUUCUUGUAAGAGGUUUCUUUAAAAUGACUAGUUUGAUGUAUCUGGUAACAUAUAGGCCUGACUAUACAUUUUACAUUAUUUCGCUAUUUUGUAAACUGGGAUUUUAGAAAGCACAACAGAGGAUUGAGCAUCA
# B4: chr6:157944353:157944454:+|3pUTR|ENSG00000130340|unk|FALSE|unique (ssRNA)
# RNA: GGGAGUUCUACAGUCCGACGAUCAGUAAUUCUCCCCACUUGAUUUUUCUUCUAUAAAAUCCCAUAGAACAAUGUUUAUGCUAUAGCCAUUUAAUAUAUGUACAAAUUGUAAAGAAUAUGUAUAAAUGUUUUACACGAAUGUAACAACAGAGGAUUGAGCAUCA
# B5: chr1:226632358:226632459:-|3pUTR|ENSG00000143772|msi1|total|mutant (ssRNA)
# RNA: GGGAGUUCUACAGUCCGACGAUCUCAAGCCAUUUUGCCACUCGCUUCCCUGCCAUCUGGCCCUUCCCUUUGUCUCAGUGGGACCGAUGGAUUGUGAAAUGGAAUCUCCCAGAACCCCUGCCCUGGCAGCCUGGAAGACCGUGCCAACAGAGGAUUGAGCAUCA
# B6: ENSG00000070961:be:win_1751|CDS|ENSG00000070961|bound_else_gene|NA|bound_elsewhere_windowed (ssRNA)
# RNA: GGGAGUUCUACAGUCCGACGAUCCCAUGAGUACUGUCCUGAAAAAUUCAGAUGGAAGUUAUCGAAUAUUCAGCAAGGGUGCAUCUGAGAUAAUUCUGAAAAAGUGUUUCAAAAUCUUGAGUGCUAAUGGUGAGGCAAAAGUAUCAACAGAGGAUUGAGCAUCA
# B7: chrX:72139229:72139330:+|CDS|ENSG00000204131|unk|total|mutant (ssRNA)
# RNA: GGGAGUUCUACAGUCCGACGAUCUCCCUCCGUGCCCAGCAAGAGGCCCAGCACAGAAGGCAGAGGUCCAAGAGUAUCUCACUCCGGAAGGCCAAAAAGAAGCCUUCCCCACCCACACGCAGUGUCUCACUGGUCAAAGAUGAGCAACAGAGGAUUGAGCAUCA
# B8: chr17:41586309:41586834:-|CDS|ENSG00000186847|control|control|control (ssRNA)
# RNA: GGGAGUUCUACAGUCCGACGAUCGCCUGCGGGCUGGGGGGCGGCUAUGGCGGUGGCUUCAGCAGCAGCAGCAGCAGCUUUGGUAGUGGCUUUGGGGGAGGAUAUGGUGGUGGCCUUGGUGCUGGCUUGGGUGGUGGCUUUGGUCAACAGAGGAUUGAGCAUCA
# B9: chr14:53951422:53951790:-|three_prime_utr|ENSG00000125378|control|control|control (ssRNA)
# RNA: GGGAGUUCUACAGUCCGACGAUCUUUGGAGACAGAGGGGGAGGUGUUCAGGGGAAGGGGAAUGACAGCACUCAGACGUGGGCUAGCCCCAGCGGUGUGUUUUUGCUAUAUCAAAGCCUUUUCUGCUAGGUUUUCUGCCCGUUUCAACAGAGGAUUGAGCAUCA
# B10: ENSG00000198589:be:win_8101|CDS|ENSG00000198589|bound_else_gene|NA|bound_elsewhere_windowed (ssRNA)
# RNA: GGGAGUUCUACAGUCCGACGAUCGUGUUGAGUGGUUCACAAGAAGGACCAUGUCUCAUACAUUCCAUGAAUGGAGACUUGUUGAGGACCUUGGAGGGUCCUGAAAACUGCCUGAAACCAAAACUCAUUCAGGCUUCAAGAGAGCAACAGAGGAUUGAGCAUCA
# B11: chr11:61866713:61866887:+|3pUTR|ENSG00000134824|msi1|FALSE|unique (ssRNA)
# RNA: GGGAGUUCUACAGUCCGACGAUCCUCUCCUGUCUGAACCUGCCCUUACUGUGUUUAACCUGUUGCUCCAGGAUGCAUUCUGAUAGGAGGGGGCGGCAGGGCUGGGCCUUGUGACAAUCUGCCUUUCACCACAUGGCCUUGCCUCAACAGAGGAUUGAGCAUCA
# B12: chr1:205790044:205790145:-|3pUTR|ENSG00000133065|msi1|FALSE|bound_elsewhere (ssRNA)
# RNA: GGGAGUUCUACAGUCCGACGAUCAGAUUCUUCUGCCUCUUUCUCCUUUCCAGACCCCUACUCUGUGCAGUGCUGACCACAGCUAGAGCCACCGCCCCAUUGCUCAACCAGUAUUUAUUUCCCUAAACGACCCUUCCUCACAUUCAACAGAGGAUUGAGCAUCA
# B13: chr1:180885316:180885399:+|3pUTR|ENSG00000143324|msi1_unk|FALSE|overlapping (ssRNA)
# RNA: GGGAGUUCUACAGUCCGACGAUCUUGGCAGCCAUUUCUCCCAGCAGUUUUAAAGGAUGAACAUUGGAUUUCAUGCCAUCCCAUAGAAAACCUGUUUUAAAAUUUUAGGGAUCUUUACUUGGUCAUACAUGAAAAGUACACUGCCAACAGAGGAUUGAGCAUCA
# B14: chr4:4235611:4235720:-|3pUTR|ENSG00000132406|unk|total|mutant (ssRNA)
# RNA: GGGAGUUCUACAGUCCGACGAUCAUGACCGUUUUGUCCGGUGACAGGACCAAAUGAAAAUAUUUUAUGUUUUCUCAUCACUUCCGAUUUUAUCAUUAUGUACAUUACUGGGUUUUCCGCAUUUCCUAAUGUGAAGUUUUAAUCCAACAGAGGAUUGAGCAUCA
# B15: chr11:113738268:113738383:-|CDS|ENSG00000086827|unk|FALSE|unique (ssRNA)
# RNA: GGGAGUUCUACAGUCCGACGAUCUGCUUUUUGGCCCAAAUGCGGGCACAGAAAGGUGAACUUCUGGAAAGAUUAUCAAGUGCUAGGAACUUUUCAAAUAUGGACGAUGAAGAGAAUUAUUCUGCAGCAAGUAAAGCAGUCCGGCAACAGAGGAUUGAGCAUCA
# B16: chr19:44386474:44388102:-|CDS|ENSG00000267508|control|control|control (ssRNA)
# RNA: GGGAGUUCUACAGUCCGACGAUCGGCAUGUGGUAAGGGCUUCAGUCGUAAUUCAUACCUCCUUGCCCAUCAGAGAGUGCAUAUAGAUGAGACACAGUACACACACUGUGAGCGUGGAAAGGACCUUCUGACUCAUCAAAGACUCAACAGAGGAUUGAGCAUCA
# B17: chr2:111862450:111862553:-|CDS|ENSG00000153107|unk|total|mutant (ssRNA)
# RNA: GGGAGUUCUACAGUCCGACGAUCUCUUUUUCAGGGGUGCAAAGGUUCAACAUUUCAAGCCAUAAUCAGUCUCCAAAGAGACACCGUAUUUCUCAUUCUCCAAACCGUAAUUCUAAUGGCUCCUUUCUUGCACCAGAAACGGAGCAACAGAGGAUUGAGCAUCA
# B18: chr10:73917138:73917420:+|3pUTR|ENSG00000122861|msi1|FALSE|unique (ssRNA)
# RNA: GGGAGUUCUACAGUCCGACGAUCGGAAUGUAUUAUUCUGCAGCAUGACCUGUGACCAGCACUGUCUCAGUUUCACUUUCACAUAGAUGUCCCUUUCUUGGCCAGUUAUCCCUUCCUUUUAGCCUAGUUCAUCCAAUCCUCACUCAACAGAGGAUUGAGCAUCA
# B19: chr10:73479331:73479449:-|CDS|ENSG00000107758|unk|FALSE|unique (ssRNA)
# RNA: GGGAGUUCUACAGUCCGACGAUCGUUGAUGUUCUGAAGAACCACUUGGUGAAAGAAGGUCGAGUAGAUGAAGAAAUUGCGCUUAGAAUUAUCAAUGAGGGUGCUGCCAUCCUUCGGAGAGAGAAAACCAUGAUAGAAGUAGAACAACAGAGGAUUGAGCAUCA
# B20: chr14:75048437:75048538:-|CDS|ENSG00000119684|unk|FALSE|unique (ssRNA)
# RNA: GGGAGUUCUACAGUCCGACGAUCUCAGAAGCGUGUGACUUCCGAUGAGAGGAGCAAUUUCCAGGAAGCAUGUAAUAAUAUUUUAGAUUCCUAUGAGAUGUUUAAUUUGCAGUCAAAAGCUGUGAAAAGAAAAACUACUGCAGACAACAGAGGAUUGAGCAUCA
# B21: chr12:54238554:54238587:-|3pUTR|ENSG00000094916|msi1_unk|FALSE|overlapping (ssRNA)
# RNA: GGGAGUUCUACAGUCCGACGAUCGGGAGCACCCAUUUUAAACCUGGAGAGAACCAUGAUGUUUUCUUCUUCAAAUAACAAUCUAGUUUUUUUUCCCCCAGUACUAAAAUUGUAUUGUCUUUCAGACAAUAUAAUUUUUAUUUACAACAGAGGAUUGAGCAUCA
# B22: chr5:133074000:133074114:+|CDS|ENSG00000170606|unk|total|mutant (ssRNA)
# RNA: GGGAGUUCUACAGUCCGACGAUCUCUUGCAUAUGGAAUCUAUAAGCAGGAUCUUCCUGCCUCCGAAGAGAAACCAAGAAAUGCCGUUUUUGCCGACAUGGGCCACUCUGCUUAUCAAGUUUCUGUAUGUGCAUUUAACCGAGGCAACAGAGGAUUGAGCAUCA
# Molecular target: T1, UNK ZnF1-6 (called full-length)
# Experiment: nsRBNS (natural sequence RNA bind-n-seq); RBNS binding buffer (assumed for nsRBNS): 25 mM Tris pH 7.5, 150 mM KCl, 3 mM MgCl2, 0.01% Triton X-100, 500 ug/ml BSA, 20 U/ml SUPERase-In, 4 C; UNK is unkempt and MSI1 is Musashi-1; names of the RNAs are library labels; protein concentration not given here; high values mean tight binding
row,Binder,binding signal
1,B1,0.359 enrichment R
2,B2,4.28 enrichment R
3,B3,0.621 enrichment R
4,B4,2.42 enrichment R
5,B5,2.1 enrichment R
6,B6,0.298 enrichment R
7,B7,0.668 enrichment R
8,B8,1.36 enrichment R
9,B9,0.965 enrichment R
10,B10,0.394 enrichment R
11,B11,0.694 enrichment R
12,B12,1.07 enrichment R
13,B13,1.91 enrichment R
14,B14,0.866 enrichment R
15,B15,0.616 enrichment R
16,B16,0.503 enrichment R
17,B17,0.417 enrichment R
18,B18,1.54 enrichment R
19,B19,2.18 enrichment R
20,B20,0.697 enrichment R
21,B21,9 enrichment R
22,B22,0.393 enrichment R
